Results taken from PMC8560763, “Roles of metal ions in the selective inhibition of oncogenic variants of isocitrate dehydrogenase 1” (Communications Biology, 2021).
Where “and” joins values, the source holds several entries; their conditions need not be identical. Identical values can stand only once. Each block holds one compound with its values, some of them ahead of it.

Key:
R132H IDH1 [1] = conditions: cited from earlier work; for IC50: read-out: half-maximal inhibitory concentration (IC50s)
R132H IDH1 [2] = target: T1, R132H IDH1 (Homo sapiens, UniProt O75874, R132H); assay: Absorbance assay: effect of metal ions on catalysis and inhibition of R132H IDH1; format: biochemical; conditions: for inhibition by metal ion: R132H IDH1, metal ions 10 mM in the presence of 10 mM Mg^2+
T1 construct: made in house; host or cells: Escherichia coli BL21(DE3) pLyS
T1 sequence (O75874 2-414 R132H): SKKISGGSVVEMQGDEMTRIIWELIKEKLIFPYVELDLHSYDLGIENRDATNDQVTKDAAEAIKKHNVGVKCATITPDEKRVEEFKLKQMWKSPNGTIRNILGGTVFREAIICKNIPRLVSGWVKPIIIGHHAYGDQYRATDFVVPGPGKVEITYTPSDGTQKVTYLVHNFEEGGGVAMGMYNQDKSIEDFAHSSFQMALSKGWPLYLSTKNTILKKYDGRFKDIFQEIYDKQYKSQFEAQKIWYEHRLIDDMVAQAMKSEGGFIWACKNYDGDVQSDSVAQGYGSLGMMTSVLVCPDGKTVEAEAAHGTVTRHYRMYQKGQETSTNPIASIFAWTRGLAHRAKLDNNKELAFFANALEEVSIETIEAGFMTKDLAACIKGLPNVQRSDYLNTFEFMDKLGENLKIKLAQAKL

R132H IDH1 [3] = target: T1, R132H IDH1; assay: Differential scanning fluorimetry (DSF) thermal shift, R132H IDH1; format: binding; conditions: R132H IDH1, divalent metal ions (5 mM), 50 mM Tris-HCl, pH 7.5
R132H IDH1 [4] = target: T1, R132H IDH1; assay: Absorbance assay: kinetics of oxidative reaction (isocitrate to 2OG) by R132H IDH1; format: biochemical; conditions: for Velocity: Fig. S2i
R132H IDH1 [5] = target: T1, R132H IDH1; assay: Absorbance assay: kinetics of reductive reaction (2OG to 2HG) by R132H IDH1; format: biochemical; conditions: for Km: read-out: KM
[6] = R132H IDH1, oxidative reaction with Mg^2+ (10 mM MgCl2)
[7] = R132H IDH1, reductive reaction (2OG to 2HG) with Mg^2+ (10 mM MgCl2)

SMILES: C[C@H]1C[C@@H](n2c(Nc3ccc(OC(F)(F)F)cc3)nc3cc(CCC(=O)O)ccc32)CC(C)(C)C1 [BAY-1436032]
IC50 (R132H IDH1 [1]): < 100 nM

SMILES: [Ba+2].[Cl-].[Cl-] [Ba^2+, BaCl2]
inhibition by metal ion (R132H IDH1 [2]): inhibiting

SMILES: [Cl][Cd][Cl] [Cd^2+, CdCl2]
inhibition by metal ion (R132H IDH1 [2]): inhibitory

SMILES: [Cl-].[Cl-].[Co+2] [Co^2+, CoCl2]
inhibition by metal ion (R132H IDH1 [2]): inhibitory

SMILES: C[C@H](O)c1cccc(NC(=O)c2nn(Cc3ccc(F)cc3)c3c2CN(C(=O)c2ccc[nH]2)C[C@H]3C)c1 [GSK321]
mode of inhibition (R132H IDH1 [1]): competitive with respect to the substrate 2OG, and noncompetitive with respect to NADPH | IC50 (R132H IDH1 [1]): < 100 nM

SMILES: Cc1ccccc1C(C(=O)NC1CCCC1)N(C(=O)Cn1cnc2ccccc21)c1cccc(F)c1 (centres unmarked) [ML309]
mode of inhibition (R132H IDH1 [1]): competitive with 2OG | IC50 (R132H IDH1 [1]): < 100 nM

thermal shift (shift in Tm) (R132H IDH1 [3]): destabilise | kcat (R132H IDH1 [4]; R132H IDH1, oxidative reaction with Mg^2+): 0.10 ± 0.01 s⁻¹ | Km (R132H IDH1 [4]; [6]): 0.171 ± 0.023 mM | Vmax (R132H IDH1 [4]; [6]): 45 ± 2 nM/s | fold higher KM, R132H IDH1 2OG reduction vs wt IDH1 isocitrate oxidation (R132H IDH1 [5]; 150 mM NaCl): 70 fold | Velocity (R132H IDH1 [5]; Fig. S2l, [MgCl2] 25000 μM): 0.1986 µM/s and 0.1907 µM/s | Velocity (R132H IDH1 [5]; Fig. S2m, [MgCl2] 781.25 μM): 0.01983 µM/s | Vmax (R132H IDH1 [5]; [7]): 224 ± 10 nM/s | Km (R132H IDH1 [5]; [7]): 4.4 mM | Km (R132H IDH1 [5]; R132H IDH1 catalysed 2OG reduction, in the presence of 150 mM NaCl): 6.7 mM | fold higher apparent KM, R132H IDH1 2OG reduction vs wt IDH1 isocitrate oxidation (R132H IDH1 [5]; no NaCl): ~ 120 fold | effect of metal ion on catalysis (R132H IDH1 [2]; R132H IDH1, metal ions 10 mM): promoted
SMILES: [Cl-].[Cl-].[Mg+2] [MgCl2]
Velocity (R132H IDH1 [4]; [MgCl2] 15.625 μM): 0.005659 µM/s and 0.007502 µM/s and 0.009476 µM/s | Velocity (R132H IDH1 [4]; [MgCl2] 62.5 μM): 0.009607 µM/s and 0.008554 µM/s and 0.01119 µM/s | Velocity (R132H IDH1 [4]; [MgCl2] 250 μM): 0.03093 µM/s and 0.02922 µM/s and 0.02908 µM/s | Velocity (R132H IDH1 [4]; [MgCl2] 500 μM): 0.03027 µM/s and 0.03922 µM/s and 0.03685 µM/s | Velocity (R132H IDH1 [4]; [MgCl2] 1000 μM): 0.0404 µM/s and 0.0408 µM/s and 0.03672 µM/s | Velocity (R132H IDH1 [4]; [MgCl2] 2000 μM): 0.04054 µM/s and 0.04211 µM/s and 0.03553 µM/s | Velocity (R132H IDH1 [5]; Fig. S2l, [MgCl2] 781.25 μM): 0.01632 µM/s and 0.01228 µM/s and 0.02281 µM/s | Velocity (R132H IDH1 [5]; Fig. S2l, [MgCl2] 1562.5 μM): 0.06984 µM/s and 0.05931 µM/s and 0.06826 µM/s | Velocity (R132H IDH1 [5]; Fig. S2l, [MgCl2] 3125 μM): 0.1048 µM/s and 0.09458 µM/s and 0.13 µM/s | Velocity (R132H IDH1 [5]; Fig. S2l, [MgCl2] 6250 μM): 0.1146 µM/s and 0.1423 µM/s and 0.1156 µM/s | Velocity (R132H IDH1 [5]; Fig. S2l, [MgCl2] 50000 μM): 0.1811 µM/s and 0.2269 µM/s and 0.2123 µM/s | Velocity (R132H IDH1 [5]; Fig. S2m, [MgCl2] 390.625 μM): 0.02492 µM/s and 0.01983 µM/s and 0.03194 µM/s
